PubChem BioAssay AID1159614 (National Center for Advancing Translational Sciences (NCATS), 2016)
The whole screen tested about 45,000 compounds, of which about 65 (0.1%) were called active. The call rests on the fitted dose curve; in most records, active means well fitted activation curve with a large enough effect; inconclusive means small, poorly fitted or top-dose-only effect; inactive means no such curve, though single readings can be large or run the other way. The list shows a part of the results.

These compounds were tested against Galactocerebrosidase (Homo sapiens) (UniProt P54803) (assay: A Novel Cell-Based Assay to Identify Small Molecules for B -Galactocerebrosidase). Conditions: 145M-Twi-hGALC-G270D cells (Twitcher mouse brain line with human GALC G270D), HMU-beta-Gal fluorescence, 48 h; series mostly up to 57.5 µM; activation: at the top concentration.
Chain of UniProt P54803 (P54803 whole entry, looked up): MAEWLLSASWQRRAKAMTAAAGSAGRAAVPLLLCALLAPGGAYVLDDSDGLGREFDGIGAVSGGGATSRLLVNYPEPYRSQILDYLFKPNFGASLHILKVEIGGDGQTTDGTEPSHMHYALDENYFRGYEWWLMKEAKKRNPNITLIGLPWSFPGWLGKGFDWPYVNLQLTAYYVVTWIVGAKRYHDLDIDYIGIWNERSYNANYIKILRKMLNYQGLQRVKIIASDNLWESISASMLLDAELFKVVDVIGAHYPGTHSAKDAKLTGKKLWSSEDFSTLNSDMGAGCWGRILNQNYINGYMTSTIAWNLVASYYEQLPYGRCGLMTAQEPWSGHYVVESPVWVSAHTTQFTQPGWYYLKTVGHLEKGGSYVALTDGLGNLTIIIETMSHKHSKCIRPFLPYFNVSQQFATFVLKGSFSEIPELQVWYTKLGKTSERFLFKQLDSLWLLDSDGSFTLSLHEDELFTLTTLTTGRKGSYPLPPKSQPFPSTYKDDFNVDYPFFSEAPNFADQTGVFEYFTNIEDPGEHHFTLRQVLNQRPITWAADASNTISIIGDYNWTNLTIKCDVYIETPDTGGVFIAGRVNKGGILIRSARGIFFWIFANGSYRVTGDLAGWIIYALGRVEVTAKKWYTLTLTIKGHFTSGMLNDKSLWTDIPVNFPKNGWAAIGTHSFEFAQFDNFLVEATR
How it was run: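 Brain-derived Twitcher mouse 145M-Twi cells stably expressing human GALC-G270D or wild-type GALC, treated live, then residual GALC activity read by fluorescence of HMU-b-Gal substrate (0.1 mM final) in citrate-phosphate buffer pH 5.2 with sodium taurocholate. Signal increase indicates enhancement.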
Further: 0% is about no effect; nearly all actives have a fitted effect of over 65% in size.

activation, inactive:
CCc1ccc(-c2cn3c(n2)sc2cc(C(=O)NCCC4=CCCCC4)ccc23)cc1 -17.3%, CCOC(=O)c1ccc(NC(=O)CSc2cn(CC(=O)N3CCCC3)c3ccccc23)cc1 -14.1%, Cc1ccc(-c2nn3c(=O)cc(CN4CCN(C(=O)/C=C/c5ccccc5)CC4)nc3s2)cc1 -10.8%, CCOC(=O)c1ccc(NC(=O)C(Cc2ccccc2)N2Cc3ccccc3C2=O)cc1 (centres undefined) -15.3%, CCn1c(=O)c2sccc2n2c(CCCC(=O)N3CCN(c4cccc(Cl)c4)CC3)nnc12 -18.6%, Cc1ccc(-n2nc3c(N4CCCC(C(=O)NCc5ccc(Cl)cc5)C4)nnc(C)c3c2C)cc1 (centres undefined) -4.33%, COC(=O)c1ccc2c(c1)N(CC(=O)Nc1ccc(OC)c(Cl)c1)C(=O)c1ccccc1S2 -0.216%, CC(C)c1ccc(NC(=O)CSc2nc(=O)n(Cc3ccccn3)c3c2CCC3)cc1 -5.49%, N#Cc1nc(COc2cccc(Cl)c2)oc1NCCc1ccccc1 -5.58%, CCCn1c(SCc2nc(-c3ccccc3OCC)no2)nnc1-c1ccc(Cl)cc1 -9.13%, CCOc1ccccc1C(=O)N(Cc1cc(OC)c(OC)c(OC)c1)c1ccccn1 -10.7%, Cc1ccc(NC(=O)Cn2c(=O)n(Cc3nc(C)no3)c(=O)c3cc4c(cc32)OCO4)c(C)c1 -6.6%, Cc1sc2ncn(CC(=O)Nc3cccc(C(F)(F)F)c3)c(=O)c2c1S(=O)(=O)N1CCN(C)CC1 3.2%, CCOc1ccc(OCC(=O)NCCS(=O)(=O)N2CCN(c3ccccc3F)CC2)cc1 -18.7%, COC(=O)CNC(=O)C1CCN(S(=O)(=O)c2cccc3nsnc23)CC1 -7.38%, Cc1ccc(C(=O)c2c(N)c(C(=O)Nc3ccccc3Cl)c3ccccn23)cc1 -17.1%, Cc1ccc(CCNC(=O)c2ccc3c(c2)nc2n3CCCCC2)cc1 7.03%, O=C(CN1C(=O)COc2ccc(Cl)cc21)Nc1cccc(F)c1 -30%, CCN(CC)c1ccc2cc(-c3nc(-c4cccs4)no3)c(=O)oc2c1 -2.14%, CC(=O)c1ccc(N2CCN(C(=O)CCC(=O)Nc3ccc4nc(N5CCCCC5)cc(C)c4c3)CC2)cc1 -8.77%, CC1=C(C(=O)Nc2ccc(C)cc2C)C(c2ccc([N+](=O)[O-])cc2)n2ncc(C(=O)Nc3ccc(F)cc3)c2N1 (centres undefined) 10.5%, Cc1ccc(-n2c(=O)c3c(cnn3C)n(CC(=O)Nc3ccc(C)cc3C)c2=O)cc1 -2.17%, COc1cc2c(Nc3ccc(Br)cc3F)ncnc2cc1OCC1CCN(C)CC1 -6.76%, Cc1c(C(=O)N2CCC(C)CC2)c(S(=O)(=O)NCc2ccc(Cl)cc2)c(C)n1C -24.2%, CN(c1ccc(F)cc1)S(=O)(=O)N1CCCC(C(=O)NCc2cccc(Br)c2)C1 (centres undefined) -15.4%, Cc1ccc(S(=O)(=O)N2CCCc3cc(NS(=O)(=O)c4cccc(Cl)c4)ccc32)cc1 -10.5%, COc1ccccc1NC(=O)CSc1nnc(NC(=O)Nc2ccc(C)cc2)s1 -12.5%, COc1ccccc1CNC(=O)c1c(O)nc2c(C)cccn2c1=O -14.6%, CC1CCN(S(=O)(=O)c2ccc3c(c2)c(=O)c(C(=O)NCCc2ccccc2)cn3C)CC1 -20.6%, COc1ccc(S(=O)(=O)NCCc2csc3nc(-c4cccc(C)c4)nn23)cc1F -7.75%, CCCCN1C(=O)c2[nH]nc(-c3ccccc3O)c2C1c1ccc(OCc2ccccc2)cc1 (centres undefined) -8.69%, COc1ccccc1NC(=O)CCC(=O)N1CC(C)Oc2ccc(C)cc21 (centres undefined) -5.68%, CCc1ccc(NC(=O)C2CCCN2S(=O)(=O)c2ccc3c(c2)n(C)c(=O)c(=O)n3C)cc1 (centres undefined) -7.78%, COc1ccccc1CNC(=O)CN(C)c1nn2c(=O)cc(C)nc2s1 -9.5%, CC(=O)c1ccc(NC(=O)CSc2nnc3ccc(-c4ccc(Br)cc4)nn23)cc1 -22%, COC(=O)CN1C(=O)CSc2ccc(S(=O)(=O)Nc3ccc(C(C)=O)cc3)cc21 -13.4%, CC1(C)OC[C@@H]2O[C@@]3(C(=O)O)OC(C)(C)O[C@H]3[C@@H]2O1 -11.9%, COc1ccc(NC(=O)Cn2c(=O)c3cc(Cl)ccc3n3nncc23)cc1 -1.2%, CCOc1ccc(C(=O)c2cn(CC(=O)Nc3ccc4c(c3)OCCO4)c3ccc(F)cc3c2=O)cc1 -3.18%, CC(C)CCNS(=O)(=O)c1ccc(N2CCCCS2(=O)=O)cc1 -7.01%, CC1CCN(C(=O)CSc2nnc(-c3ccccc3)o2)CC1 -1.1%, CN(C(=O)CSc1nc(C2CCCC2)nc2c1c(=O)n(C)c(=O)n2C)c1ccccc1 -29.7%, Cc1cccc(C)c1OC(=O)CSc1nnc(CNC(=O)c2ccccc2)o1 -7.07%, Cc1cc(C)c(NS(=O)(=O)c2cc(-c3onc(C)c3C)ccc2C)c(C)c1 -4.88%, O=C(CN1CCCN(S(=O)(=O)c2ccc(Br)cc2)CC1)Nc1cccc(C(F)(F)F)c1 -9.73%, Cc1ccc(NC(=O)c2cnc(SCC(=O)N3CCOCC3)n(C)c2=O)cc1C -17.2%, CC1CCN(C(=O)c2ccc3c(c2)N(Cc2ccccc2)C(=O)c2ccccc2S3(=O)=O)CC1 -12.2%, COc1ccc(-n2nnc(-c3nsc(NC(=O)c4ccc(C)c(C)c4)n3)c2C)cc1Cl -4.7%, CCCc1nnc(NC(=O)Cc2coc3ccc(C(C)C)cc23)s1 0.22%, O=C(CSc1oc(-c2ccccc2)nc1S(=O)(=O)c1ccc(Cl)cc1)NC1CCCCC1 11.6%, COCCCNC(=O)CSc1nc2cc3c(cc2c(=O)n1CCCCCC(=O)NCc1ccc(OC)cc1)OCO3 4.37%, CC(C)COC(=O)Cn1nnc2sc(-c3ccccc3)cc2c1=O -1.15%, COc1ccc(NC(=O)Cn2nnc(C(=O)NCc3ccc4c(c3)OCO4)c2N)cc1 -8.15%, Cc1cccc(N2CCN(C(=O)c3ccc4c(Cl)c5c(nc4c3)CCCC5)CC2C)c1 (centres undefined) -7.86%, COc1ccccc1-c1noc(-c2ccc(NCc3ccco3)c([N+](=O)[O-])c2)n1 10.1%, O=C(Nc1cccc(C(F)(F)F)c1)c1cc(S(=O)(=O)N2CCCC2)c[nH]1 -14.4%, Cc1ccc2cccc(NC(=O)c3cccc4c(Cl)cccc34)c2n1 -9.36%, Cc1ccc(C)c(N2CCN(C(=O)CCNS(=O)(=O)c3ccc4c(c3)CCN4C(=O)C3CC3)CC2)c1 -43%, O=C(C1CCC(Cn2c(=O)c3sccc3n(Cc3ccccc3)c2=O)CC1)N1CCCCC1 (centres undefined) -9.31%
